SMILES strings stand for the structures. Some of the results follow. The main result of the screen is listed elsewhere. These columns were measured beside it and carry no call.

From PubChem BioAssay AID1745853 (National Center for Advancing Translational Sciences (NCATS), 2022) come the findings set out here.

Assay in all cases: Primary Screen for Target Class Profiling of Small Molecule Inhibitors of Methyltransferases
For experiment [1], the target named is Glycine N-methyltransferase (Homo sapiens) (UniProt Q14749). The note with it: purified enzyme, MTase-Glo SAH luminescence; measured here: GNMT inhibition; at 40 µM; stronger effect = lower value. Summed up:
(§1)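 Each enzyme was reacted with SAM and its substrate, with compounds tested once at 40 uM; SAH formed was read by MTase-Glo luminescence.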

The target in experiment [2] is Guanidinoacetate N-methyltransferase (Homo sapiens) (UniProt Q14353). The following applies: purified enzyme, MTase-Glo SAH luminescence; measured here: GAMT inhibition; at 40 µM; stronger effect = lower value. The gist of the method:
as §1

The target in experiment [3] is Histamine N-methyltransferase (Homo sapiens) (UniProt P50135). The note with it: purified enzyme, MTase-Glo SAH luminescence; measured here: HNMT inhibition; at 40 µM; stronger effect = lower value. Summed up:
as §1

Experiment [4] addresses Nicotinamide N-methyltransferase (Homo sapiens) (UniProt P40261). The following applies: purified enzyme, MTase-Glo SAH luminescence; measured here: NNMT inhibition; at 40 µM; stronger effect = lower value. Summed up: as §1
Experiment [5] deals with Phenylethanolamine N-methyltransferase (Homo sapiens) (UniProt P11086). The following applies: purified enzyme, MTase-Glo SAH luminescence; measured here: PNMT inhibition; at 40 µM; stronger effect = lower value. Summed up: as §1
% is scaled to controls: 0 for no effect and ±100 for the full control effect.

In the case of `CCCCCCC/C=C\CCCCCCCCC(=O)O`, the activity change, negative = inhibition in experiment [1] was -1.55%; in experiment [2] it was 9.83%; in experiment [3], 4.05%; in experiment [4], -11.6%; in experiment [5], -1.15%.

With `Fc1ccc(-c2cccc(CN3CC4CCC(C3)N4c3ccc(C(F)(F)F)cc3)c2)c(F)c1`, the activity change, negative = inhibition is -9% in experiment [1]; -10.7% in experiment [2]; -6.42% in experiment [3]; -17.7% in experiment [4]; -28.2% in experiment [5].

Consider `Cc1cccc(NC(=O)N2CCn3cccc3C2Cc2ccccc2)c1C` (stereo not drawn), for which the activity change, negative = inhibition in experiment [1] is -6.86%; in experiment [2] it was 3.51%; in experiment [3], -6.85%; in experiment [4], -4.82%; in experiment [5] it was -6.09%.

Turning to `O=C(NCC1CN(C(=O)Cc2ccc(C(F)(F)F)cc2)CC12CN(c1ccccc1)C2)c1ccccc1` (stereo not drawn), the activity change, negative = inhibition in experiment [1] was -5.88%; in experiment [2] it was 2.05%; in experiment [3] it was 0.106%; in experiment [4], -4.73%; in experiment [5], -6.78%.

On to `Cc1ccc(N(C)S(=O)(=O)c2ccc3c(c2)NC(=O)CC(=O)N3)cc1`, for which the activity change, negative = inhibition in experiment [1] is -5.99%; in experiment [2], 1.99%; in experiment [3], -2.85%; in experiment [4], -11.7%; in experiment [5] it was -6.94%.

Turning to `Cc1cccc(NC(=O)CSc2nnc3n(CCCOC(C)C)c(=O)c4ccccc4n23)c1`, the activity change, negative = inhibition was -3.73% in experiment [1]; 0% in experiment [2]; 4.33% in experiment [3]; -2.46% in experiment [4]; -0.948% in experiment [5].

In the case of `O=C(O)c1ccc2c(c1)C1C=CCC1C(c1ccc(Cl)cc1)N2` (stereo not drawn), the activity change, negative = inhibition is -63.6% in experiment [1]; -21.2% in experiment [2]; -14.2% in experiment [3]; -12.3% in experiment [4]; -24.1% in experiment [5].

In the case of `CCOc1ccc(C(=O)N2c3ccccc3CC2c2nc(CCOC)no2)cc1` (stereo not drawn), the activity change, negative = inhibition in experiment [1] was 0.406%; in experiment [2] it was -7.53%; in experiment [3], 0.474%; in experiment [4] it was -3.41%; in experiment [5] it was -2.94%.

Regarding `CCn1c(=O)n(CC)c2cc(S(=O)(=O)Nc3ccc(Br)cc3)ccc21`, the activity change, negative = inhibition in experiment [1] was 0.211%; in experiment [2], 0%; in experiment [3], 1.87%; in experiment [4], -9.89%; in experiment [5] it was -0.582%.

Take `O=C(CCc1nnc2n(Cc3ccc(F)cc3)c(=O)c3ccccc3n12)N1CCN(c2ccc(F)cc2)CC1`: the activity change, negative = inhibition was 0.857% in experiment [1]; 0% in experiment [2]; 6.86% in experiment [3]; -0.615% in experiment [4]; 0.586% in experiment [5].

Consider `COc1ccc(OC)c(CCNC(=O)CCc2nnc3n(CC(C)C)c(=O)c4ccccc4n23)c1`, for which the activity change, negative = inhibition in experiment [1] is -2.66%; in experiment [2], 4.04%; in experiment [3], 6.63%; in experiment [4], -1.56%; in experiment [5], 0.641%.

Take `O=C1CN(Cc2ccccc2F)S(=O)(=O)c2ccccc2N1Cc1cccc(F)c1`: the activity change, negative = inhibition turned out to be 7.97% in experiment [1]; 0% in experiment [2]; 8.69% in experiment [3]; 4.29% in experiment [4]; 4.84% in experiment [5].

With `O=C(O)CCCC(=O)N[C@H]1CO[C@H]2[C@@H]1OC[C@@H]2Nc1nccc(-c2ccc3c(c2)OCO3)n1`, the activity change, negative = inhibition in experiment [1] is -3.87%; in experiment [2], -0.596%; in experiment [3] it was -1.18%; in experiment [4], -1.18%; in experiment [5], -4.46%.

With `COc1ccc(-c2cc3n(n2)CC(C)(C(=O)NCc2ccccc2OC)N(c2cc(C)ccc2C)C3=O)cc1` (stereo not drawn), the activity change, negative = inhibition in experiment [1] was -2.09%; in experiment [2] it was 2.48%; in experiment [3], -2.16%; in experiment [4], -7.91%; in experiment [5], -4.71%.

As for `CCC(C(=O)NCc1ccccc1C)n1ccc2cc(S(=O)(=O)N3CCCCC3)ccc21` (stereo not drawn), the activity change, negative = inhibition came to 5.85% in experiment [1]; 0.581% in experiment [2]; 0.987% in experiment [3]; 4.04% in experiment [4]; 2.79% in experiment [5].

For the compound `O=C1CCCCC(CNC(=O)C2(c3ccccc3)CC2)N1` (stereo not drawn), the activity change, negative = inhibition in experiment [1] was -2.56%; in experiment [2], -0.769%; in experiment [3] it was -0.575%; in experiment [4] it was -10.7%; in experiment [5], 8.72%.

Regarding `NC(N)=NC(=O)Cc1c(Cl)cccc1Cl`, the activity change, negative = inhibition in experiment [1] was 1.71%; in experiment [2], 12.2%; in experiment [3] it was -6.87%; in experiment [4], -1.93%; in experiment [5], 8.06%.

Take `CC1(C)O[C@H]2CC(=O)OC[C@]23[C@H]2CC[C@@]4(C)[C@H](c5ccoc5)OC(=O)[C@H]5O[C@]54[C@]2(C)C(=O)C[C@@H]13`: the activity change, negative = inhibition was 0% in experiment [1]; 2.02% in experiment [2]; 1.01% in experiment [3]; -10.2% in experiment [4]; 5.03% in experiment [5].

With `Cc1nn2c(SCC(=O)Nc3cccc(F)c3)nnc2[nH]c1=O`, the activity change, negative = inhibition in experiment [1] was found to be 14%; in experiment [2], 0%; in experiment [3], 8.89%; in experiment [4], 3.44%; in experiment [5] it was 2.43%.

Consider `C=CC1(C)CC(O)C(C(=C)C(=O)OC)C(O)C1C(=C)CO` (stereo not drawn), for which the activity change, negative = inhibition in experiment [1] is -8.99%; in experiment [2], -15.8%; in experiment [3] it was -3.52%; in experiment [4], -26.1%; in experiment [5], -1.66%.

For `Cc1ccc(CNC(=O)C2(C)Cn3nc(C(=O)NC4CCCCC4)cc3C(=O)N2C)cc1` (stereo not drawn), the activity change, negative = inhibition in experiment [1] was 9.22%; in experiment [2], 4.99%; in experiment [3], 9.5%; in experiment [4], 6.78%; in experiment [5], 7.02%.

`CC1(C(=O)NC2CCCCCCC2)Cn2c(cc3sccc32)C(=O)N1C1CCCCCC1` (stereo not drawn): the activity change, negative = inhibition in experiment [1] was -0.287%; in experiment [2], 5.81%; in experiment [3], 2.94%; in experiment [4], 3.09%; in experiment [5], -0.098%.

Take `O=C(c1ccc(Cn2cccn2)o1)N1CCC2(CC1)[C@H](O)C[C@@H]2O`: the activity change, negative = inhibition in experiment [1] was -1.67%; in experiment [2], 0.154%; in experiment [3] it was -1.25%; in experiment [4], 1.18%; in experiment [5], -3.25%.

For the compound `COc1ccc(CNc2nc3c(S(=O)(=O)c4ccc(F)cc4)nnn3c3ccccc23)cc1`, the activity change, negative = inhibition is -10% in experiment [1]; 1.21% in experiment [2]; -7.31% in experiment [3]; -8.12% in experiment [4]; -8.43% in experiment [5].

Turning to `O=C(O/N=C1\c2ccccc2-c2nc3ccccc3nc21)c1ccco1`, the activity change, negative = inhibition in experiment [2] was -8.87%; in experiment [4], -22.8%; in experiment [5], -12.8%.

Turning to `OC[C@@H]1O[C@H](CNCc2ccc(F)cc2)[C@H](N2CCCC2)[C@@H]1O`, the activity change, negative = inhibition in experiment [1] was -5.04%; in experiment [2] it was -5.6%; in experiment [3], -2.07%; in experiment [4] it was -5.89%; in experiment [5] it was -14.8%.

In the case of `NC/C=C\C(=O)O`, the activity change, negative = inhibition in experiment [1] is -27.2%; in experiment [2], 10.6%; in experiment [3] it was 6.42%; in experiment [4], -7.87%; in experiment [5] it was -19%.

Consider `NC(=O)c1cccc(-c2cc(Nc3ccc(OC(F)(F)F)cc3)ncn2)c1`, for which the activity change, negative = inhibition in experiment [1] was -6.08%; in experiment [2], 5.86%; in experiment [3] it was 1%; in experiment [4] it was -23.9%; in experiment [5], -3.7%.

In the case of `Cc1cc(C)c(CNC(=O)c2cc(-c3ccc(CN4CCOCC4)cc3)cc3c2cnn3C2CCCC2)c(=O)[nH]1`, the activity change, negative = inhibition was -12.3% in experiment [1]; 14.9% in experiment [2]; 3.37% in experiment [3]; -7.14% in experiment [4]; 2.47% in experiment [5].
